# The supplement of paper PMC7826260
# Some of the results follow. Each Rep nickase domain was tested in vitro on the same pool of single strands at 3 µM enzyme and 37 °C for 1 h; the strands have 90 letters, of which the middle is given. Numbers give uncut DNA relative to the enzyme-free pool, as log2; uncut sequences lie near 0, cut ones below; no hit call is given. Counts are relative to all reads, so uncut sequences can rise above 0 when many others are cut.
# Tested on: T1, Rep nickase domain of tomato golden mosaic virus
# T1 sequence (protein, residues 1-124, tag omitted): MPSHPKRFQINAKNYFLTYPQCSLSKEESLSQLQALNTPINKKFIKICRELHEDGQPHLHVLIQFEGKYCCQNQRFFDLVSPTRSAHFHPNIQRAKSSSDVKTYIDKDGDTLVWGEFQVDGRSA
# Experiment: uncleaved DNA left, log2 of reads against the no-enzyme library (log2 ratio); higher = less cleavage (more negative = more Rep cleavage of the k-mer); sequences stand for … in CTCGTCCG…ACCGGAGA
# Experimental: (§1)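 A pool of 90-nt single-stranded DNAs with seven random bases just before the constant AC of the nick site (name = the seven bases) was cut by 3 µM recombinant His6-SUMO-tagged Rep nickase domain (300 nM DNA, 50 mM HEPES pH 8.0, 50 mM NaCl, 1 mM MnCl2, 1 h, 37 °C, three replicates). Uncut DNA was amplified and sequenced.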
row,Sequence,uncleaved DNA left (log2)
1,TCTAGCG,-0.0711
2,TATCAAA,0.0394
3,CTTTGAA,0.0276
4,AATGGGA,0.111
5,CCGCACT,0.0863
6,CTAGCTA,-0.00467
7,TCGTTGC,-0.223
8,CCTACCC,-0.0351
9,TAGAGCG,-0.0327
10,GAAGGGG,0.104
11,ACGTAGA,0.0666
12,TGTCTAG,-0.0751
13,CGGGACG,0.109
14,CTCGCAC,-0.0456
15,TGAATGT,-0.0717
16,AATGCAT,-0.0333
17,ACCACAA,-0.0294
18,CGTCGAT,0.101
19,GGTAGGC,-0.0787
20,GTTCGAC,0.0851

row,Sequence,uncleaved DNA left (log2)
1,CGGCTGA,0.111
2,CCTGCAG,-0.225
3,GCCAGTA,0.0808
4,CTAGGCC,0.0202
5,GCCGCCC,-0.0423
6,TATGTCT,-0.241
7,CGAGATT,-0.0389
8,TCTAACC,0.0213
9,ATCGCGG,-0.0781
10,AGGAGAA,0.0402
11,GGCGATG,-0.0275
12,GATATTT,0.0376
13,AGTAATG,0.223
14,GCTAGTA,0.149
15,TGCCGGA,0.0389
16,GTCTAAG,0.202
17,CCTCTTC,-0.023
18,CCACTGA,-0.00457
19,ATGACGG,0.119
20,CAGAGTC,-0.0504

# Tested on: T2, Rep nickase domain of tomato yellow leaf curl virus
# T2 sequence (protein, residues 1-136, tag omitted): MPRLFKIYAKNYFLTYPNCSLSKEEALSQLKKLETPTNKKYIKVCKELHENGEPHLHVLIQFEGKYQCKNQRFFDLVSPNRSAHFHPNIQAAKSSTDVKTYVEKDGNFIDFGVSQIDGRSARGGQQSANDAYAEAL
# Experiment: as above
# Experimental: as §1
row,Sequence,uncleaved DNA left (log2)
1,TCTAGCG,0.00613
2,TATCAAA,0.156
3,CTTTGAA,-0.0588
4,AATGGGA,0.0196
5,CCGCACT,-0.0886
6,CTAGCTA,-0.0505
7,TCGTTGC,0.0777
8,CCTACCC,-0.19
9,TAGAGCG,-0.0166
10,GAAGGGG,-0.0452
11,ACGTAGA,0.0247
12,TGTCTAG,0.0469
13,CGGGACG,0.0821
14,CTCGCAC,-0.112
15,TGAATGT,0.038
16,AATGCAT,-0.0458
17,ACCACAA,-0.0383
18,CGTCGAT,-0.0883
19,GGTAGGC,-0.0576
20,GTTCGAC,-0.00306

row,Sequence,uncleaved DNA left (log2)
1,CGGCTGA,0.0737
2,CCTGCAG,-0.131
3,GCCAGTA,0.129
4,CTAGGCC,-0.138
5,GCCGCCC,-0.0669
6,TATGTCT,-0.124
7,CGAGATT,0.0379
8,TCTAACC,-0.0142
9,ATCGCGG,-0.149
10,AGGAGAA,-0.00973
11,GGCGATG,-0.135
12,GATATTT,0.125
13,AGTAATG,-0.0187
14,GCTAGTA,-0.00225
15,TGCCGGA,0.0753
16,GTCTAAG,0.258
17,CCTCTTC,-0.0447
18,CCACTGA,-0.0363
19,ATGACGG,-0.0322
20,CAGAGTC,-0.0461

# Tested on: T3, Rep nickase domain of wheat dwarf virus
# T3 sequence (protein, residues 1-137, tag omitted): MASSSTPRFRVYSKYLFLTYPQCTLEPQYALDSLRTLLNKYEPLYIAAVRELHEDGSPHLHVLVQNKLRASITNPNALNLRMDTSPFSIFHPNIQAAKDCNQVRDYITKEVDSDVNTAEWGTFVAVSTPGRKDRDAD
# Experiment: as above
# Experimental: as §1
row,Sequence,uncleaved DNA left (log2)
1,TCTAGCG,-0.218
2,TATCAAA,0.111
3,CTTTGAA,-0.0447
4,AATGGGA,0.0467
5,CCGCACT,-0.0225
6,CTAGCTA,-0.0703
7,TCGTTGC,-0.215
8,CCTACCC,-0.0391
9,TAGAGCG,-0.165
10,GAAGGGG,0.0263
11,ACGTAGA,0.0866
12,TGTCTAG,-0.0238
13,CGGGACG,0.134
14,CTCGCAC,-0.0895
15,TGAATGT,0.0752
16,AATGCAT,0.0694
17,ACCACAA,-0.0501
18,CGTCGAT,-0.0991
19,GGTAGGC,-0.0244
20,GTTCGAC,-0.0617

row,Sequence,uncleaved DNA left (log2)
1,CGGCTGA,0.1
2,CCTGCAG,-0.215
3,GCCAGTA,0.12
4,CTAGGCC,0.0339
5,GCCGCCC,-0.0395
6,TATGTCT,-0.371
7,CGAGATT,-0.114
8,TCTAACC,-0.132
9,ATCGCGG,-0.101
10,AGGAGAA,0.0281
11,GGCGATG,-0.078
12,GATATTT,0.0359
13,AGTAATG,0.0968
14,GCTAGTA,0.00827
15,TGCCGGA,-0.0514
16,GTCTAAG,0.195
17,CCTCTTC,-0.144
18,CCACTGA,-0.118
19,ATGACGG,0.0773
20,CAGAGTC,0.0695
